# Target: T1, HER2 ECD (human, UniProt P04626 fragment)
# T1 construct: extracellular domain; also called HER2/neu; ErbB2
# Experiment: SPR Biacore 8K, Ab captured via anti-human IgG Fc, HER2 ECD analyte, 1:1 fit
binder,measurement,value
HER-73 anti-HER2 bispecific antibody molecule (bispecific antibody) chain 1: QVQLVQSGAEVKKPGASVKVSCKASGYSFTGYFINWVREAPGQGLEWMGHISSSYATSTYNQKFQGRVTFTVDTSSSTAYMELSSLRSEDTAVYYCVRSGNYEEYAMDYWGQGTLVTVSSASTKGPSVFPLAPSSKSTSGGTAALGCLVKDYFPEPVTVSWNSGALTSGVHTFPAVLQSSGLYSLSSVVTVPSSSLGTQTYICNVNHKPSNTKVDKKVE[left out - human IgG1 Fc] chain 2: [left out - about 120 residues]GGGGSGGGGSGGGGS[left out - about 100 residues][left out - about 200 residues],Kd,0.2 nM
same,koff,2.4e-05 s⁻¹
same,kon,130000 M⁻¹ s⁻¹

# — patent US20250223376A1 (VOYAGER THERAPEUTICS, published 2025)
